Measurements published in patent US20240252641A1 (TCR2 THERAPEUTICS, published 2024).
One block for each binder: values may come before it.

Legend:
[1] = target: T1, CD70 on cells (CHO-CD70, JVM-3, U266, Raji, THP-1, T cells) (human, UniProt P32970 1-193); assay: 1.25 µg/mL scFv on JVM-3 cells
T1 construct: whole, on cells; also called cell-surface CD70
T1 sequence (looked up): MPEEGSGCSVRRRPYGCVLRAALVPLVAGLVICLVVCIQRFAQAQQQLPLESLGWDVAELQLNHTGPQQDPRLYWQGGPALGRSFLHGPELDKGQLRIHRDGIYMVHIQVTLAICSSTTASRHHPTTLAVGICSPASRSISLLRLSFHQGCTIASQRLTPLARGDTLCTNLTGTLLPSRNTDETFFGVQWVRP
In short: (§1)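 Human scFv antibodies were raised by panning a naïve human library against the CD70 extracellular domain (aa39-193). They were tested for binding to tumour cell lines with high CD70 expression (CHO-CD70, JVM3, U266) and low CD70 expression (CHO WT, K562). Cell binding was recorded per cell line, and the detection method is not stated.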

[2] = target: T2, human CD70, recombinant, N-terminally biotinylated (residues 39-193) (human, UniProt P32970 39-193, N-terminal biotin); assay: SPR
T2 construct: range 39-193; the same entry is used there; also called biotinylated human CD70; CD70 biotin
T2 sequence (looked up): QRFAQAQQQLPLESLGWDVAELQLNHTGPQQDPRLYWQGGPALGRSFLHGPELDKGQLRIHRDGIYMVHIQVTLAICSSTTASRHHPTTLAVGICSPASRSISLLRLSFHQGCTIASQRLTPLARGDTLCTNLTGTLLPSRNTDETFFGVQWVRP
In short: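 Surface plasmon resonance (SPR) was used to determine the affinity (Kd) of human scFv antibodies for recombinant, N-terminally biotinylated human antigen. These antibodies were selected from a naïve human library panned against the CD70 extracellular domain, spanning aa39-193.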

[3] = target: T2, human CD70, recombinant, N-terminally …; assay: CD27 blocking ELISA, 3 µM scFv, strep/HRP
[4] = target: T1, CD70 on cells (CHO-CD70, JVM-3, U266, …); assay: 1.25 µg/mL scFv on CHO-CD70 cells
In short: as §1

[5] = target: T1, CD70 on cells (CHO-CD70, JVM-3, U266, …); assay: 1.25 µg/mL scFv on U266 cells
In short: as §1

[6] = target: T2, human CD70, recombinant, N-terminally …; assay: CD27 blocking ELISA, 3 µM scFv, anti-His/HRP; also: unit not given here
Method: Human scFv antibodies binding CD70 were generated by panning a naïve human library with the extracellular domain (aa39-193) of CD70. 53 antibodies were identified. The ability of CD27 to block CD70 binding of the identified antibodies was measured by ELISA using two different assays. In the first assay, CD27 and his-tagged scFv anti-CD70 binders were simultaneously added to surface bound CD70, and the ability of the scFv binders to bind CD70 was detected with anti-His HRP. In the second assay, plate-bound CD70 was pre-incubated with CD27 for 30 minutes, and then additional CD27 and the his-tagged scFv anti-CD70 binder was added. The ability of the scFv binders to bind CD70 was detected with anti-His HRP. FIG. 34 is a schematic of the two different CD27 blocking assays. CD70 affinity was also measured by SPR analysis. scFv antibodies were also tested for their ability to bind tumor cell lines with high (CHO-CD70, JVM3, and U266) and low levels (CHO WT and K562 of CD70 expression. Results for 39 antibodies are shown in Table 1 below.

cell binding [1]: 41500
Kd [2]: 78.7 nM
strep/HRP [3]: 0.926
cell binding [4]: 416000
cell binding [5]: 19700
anti His/HRP [6]: 2.15
B1: 45-TC7-V-G04 (scFv)
scFv: [skipping about 100 residues]DPGWSYYYGMDVWGQGTTVTVSSGGSGGSGGSGGSQSALTQPRSVSGSPGQSVTISCTGTSSDVGGYNYVSWYQQHPGKAPQLMIFEVSYRPSGVPDRFSGSKSGTSASLAISGLQSEDEADYYCAAWDDSLKGYVFGTGTKLTVL
notes: His-tagged

cell binding [1]: 1220
Kd [2]: 4020 nM
strep/HRP [3]: 1.52
cell binding [4]: 8940
cell binding [5]: 1830
anti His/HRP [6]: 1.15
B2: 41-TC7-VII-A06 (scFv)
scFv: [skipping about 100 residues]DGYSYGGTSFDYWGQGTLVTVSSGGSGGSGGSGGSQSALTQPASVSGSPGQSITISCTGTSSDVGGYDYVSWYQQHPGKAPKLMIYEVSNRPSGVSNRFSGSKSGNTASLTISGLQAEDEADYYCSSYASSGSLLFGGGTKVTVL
notes: His-tagged

cell binding [1]: 11600
Kd [2]: 119 nM
strep/HRP [3]: 1.51
cell binding [4]: 977000
cell binding [5]: 21300
anti His/HRP [6]: 1.53
B3: 36-TC6-VI-D04 (scFv)
scFv: [skipping about 100 residues]AGGWYRESSDAFDIWGQGTMVTVSSGGSGGSGGSGGSSYELTQPPSASGTPGQRVTISCSGSSSNIGSNYVYWYQQLPGTAPKLLIYRNNQRPSGVPDRFSGSKSGTSASLAISGLRSEDEADYYCAAWDDSLSGYVFGTGIKVTVL
notes: His-tagged
